# PubChem BioAssay AID1345082 (National Center for Advancing Translational Sciences (NCATS), 2018)
# Among all 94,000 compounds or so, about 4,000 (4.3%) were called active. Inconclusive results, whose numbers are uncertain, are shown with a selection of clear calls. Calls come from the whole dose curve; as a rule, active = well fitted inhibition curve with a large enough effect; inconclusive = small, poorly fitted or top-dose-only effect; inactive = no such curve, though single readings can be large or run the other way. Potencies beside an inconclusive call are fits to weak or partial responses and may not hold up.
# Experiment: Cytotoxic Profiling in NIH 3T3 Cell Line of Diverse Libraries Using Quantitative High-Throughput Screening; note: nearly all actives have a fitted effect of over 55% in size
# Details: NIH 3T3 viability, CellTiter-Glo ATP luminescence, 48-72 h; series mostly up to 96.7 µM
# Summary of the method: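 ATP-dependent luminescence (CellTiter-Glo) served as the viability signal for NIH 3T3 cells treated with compound for 48 or 72 hr at 37 °C.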
# Potency is the fitted concentration of half-maximal effect; tags give direction and shape of the fitted curve.
row,Compound,Potency
1,CCC1(N2CCN(S(=O)(=O)c3ccc(F)c(C)c3)CC2)CCN(C(=O)C(C)C)C1 (centres undefined),"inconclusive: 35.5 µM [inhibitor, partial curve, poor fit]"
2,COc1cccc(-c2nccn2C2COC3(CCCC3)C2)c1OC (centres undefined),inactive
3,CC(=O)NC1CCN(Cc2cccc(-c3ccc(F)cc3F)c2)CC1,"inconclusive: 50.1 µM [inhibitor, partial curve, poor fit]"
4,C[S+](=O)([O-])c1ccc(-c2nnc3ccc(C(=O)NCCc4ccccc4)cn23)cc1,inactive
5,CCC(C)C1=NS(=O)(=O)c2cc(NC(=O)C3CC3)ccc2N1c1ccccc1 (centres undefined),"inconclusive: 12.6 µM [inhibitor, full curve, poor fit]"
6,O=C(C1CCCC1)N1CCCN(c2ccc3nnc(C4CC4)n3n2)CC1,inactive
7,O=C(c1cnccn1)N1C[C@@H]2OCC(=O)N(CC3CCCCC3)[C@@H]2C1,"inconclusive: 126 µM [inhibitor, single point]"
8,O=C(NC1CC1)c1nc(-c2cccc(C(F)(F)F)c2)c2ccccn12,"inconclusive: 50.1 µM [inhibitor, partial curve, poor fit]"
9,CCOc1ccc(CCNc2nc(-c3ccccc3)no2)cc1,"inconclusive: 50.1 µM [inhibitor, partial curve, poor fit]"
10,CCn1c(C2CCN(C(=O)CCNC(=O)c3ccc(F)cc3)CC2)n[nH]c1=O,"inconclusive: 79.4 µM [inhibitor, single point]"
11,COc1cccc(CN2CCOC3CCN(C(=O)c4cccnc4)CC3C2=O)c1 (centres undefined),"inconclusive: 100 µM [inhibitor, single point]"
12,COc1ccccc1Nc1ccnc(N2CCC(C(=O)NCc3cccs3)CC2)n1,"inconclusive: 5.62 µM [inhibitor, full curve, poor fit]"
13,COc1ccc(CCNC(=O)CN2C(=O)NC(c3ccccc3Cl)C3=C2COC3=O)cc1OC (centres undefined),"inconclusive: 50.1 µM [inhibitor, partial curve, poor fit]"
14,O=C(NCCN1CCOCC1)c1ccc(N2CC3CC(C2)[C@H]2CCCC(=O)N2C3)nc1 (some centres undefined),inactive
15,CS(=O)(=O)c1ccc(-c2cnc([C@@H]3COCCN3C3CCCCC3)[nH]2)cc1,"inconclusive: 100 µM [inhibitor, partial curve]"
16,Cc1ccc(OCC(=O)N2CC(c3noc(COc4ccccc4)n3)C2)cc1,"inconclusive: 50.1 µM [inhibitor, partial curve, poor fit]"
17,CC1=NS(=O)(=O)N(Cc2ccccc2)C=C1C(=O)OCc1noc(-c2ccc(C)c(C)c2)n1,"inconclusive: 8.91 µM [inhibitor, full curve]"
18,O=C1N[C@@H]2CCN(S(=O)(=O)c3ccccc3)[C@@H]2C(=O)N1c1ccc(Oc2ccccc2)cc1,inactive
19,CCN1C(=O)C2CC3(CCN(S(=O)(=O)c4cnn(CC)c4)CC3)CN2C1=O (centres undefined),inactive
20,Cn1cc(CN2CCNc3cc(-c4ccccc4)ncc3C2)cn1,inactive

row,Compound,Potency
1,Oc1ccccc1CN1C[C@H](O)C[C@H]1c1nc(-c2ccccc2)no1,"inconclusive: 100 µM [inhibitor, partial curve]"
2,Cc1ccc([S+](=O)([O-])NC2CCCN(c3ccc4nnc(C)n4n3)C2)cc1 (centres undefined),"inconclusive: 31.6 µM [inhibitor, partial curve]"
3,COc1ccccc1N1CCCc2ncc(C(=O)Nc3cccnc3)cc21,"inconclusive: 63.1 µM [inhibitor, partial curve, poor fit]"
4,CCc1cc(=O)n(CC(=O)Nc2cc(OC)ccc2OC)c(-c2ccccc2)n1,inactive
5,O=C(NC1CCN(c2cc(-c3ccc(F)cc3)[nH]n2)CC1)c1cc(F)ccc1Cl,"inconclusive: 11.2 µM [inhibitor, full curve, poor fit]"
6,Cc1nn(-c2ccccc2)c2c1C(C(C)C)N(C1CN(C(=O)c3ccc(F)cc3)C1)C2=O (centres undefined),"inconclusive: 31.6 µM [inhibitor, full curve, poor fit]"
7,CNc1nccc(N2CCC(CC(=O)N(C)CCCc3c(C)nn(C)c3C)CC2)n1,"inconclusive: 3.16 µM [inhibitor, full curve, poor fit]"
8,O=C1CCC2(CCN(C/C=C/c3ccccc3)CC2)CN1CCCn1ccnc1,"inconclusive: 56.2 µM [inhibitor, partial curve, poor fit]"
9,CN1C(=O)[C@@H]2C[C@@H](CN2Cc2ccnc3ccccc23)Oc2ccccc21,active: 89.1 µM
10,CCOC(=O)CN1C(=O)CCN(C(=O)c2ccccc2OCC)CC(OC)c2ccccc21 (centres undefined),"inconclusive: 35.5 µM [inhibitor, partial curve, poor fit]"
11,O=c1ccc(N2CCC(NS(=O)(=O)c3ccc(F)c(F)c3)CC2)nn1CC1CC1,"inconclusive: 44.7 µM [inhibitor, partial curve, poor fit]"
12,O=[S+]1([O-])NC2(CCCN(Cc3ccc(OC(F)(F)F)cc3)C2)CNc2ccccc21 (centres undefined),inactive
13,O=C(NCc1ccc(F)cc1)C1CCN(c2nccc(Nc3ccccc3F)n2)CC1,active: 44.7 µM
14,O=C(N[C@H]1CCN2C(=O)c3cc(-c4cccs4)ccc3NC(=O)[C@H]12)c1cccs1,"inconclusive: 44.7 µM [inhibitor, partial curve]"
15,COc1cccc(CN2CCc3c(cc(C(=O)Nc4cc(C)ccc4OC)n3C)C2)c1,"inconclusive: 39.8 µM [inhibitor, partial curve, poor fit]"
16,Cc1nc2ccc(Cl)cn2c1C(=O)NC1CCOC2(CCOCC2)C1 (centres undefined),inactive
17,CCCCS(=O)(=O)N1CCCC(Cn2c(C3CC3)nc3cccnc32)C1 (centres undefined),"inconclusive: 44.7 µM [inhibitor, partial curve, poor fit]"
18,COC(=O)N(C)Cc1cccc(N2CCN([S+](=O)([O-])c3c(Cl)cccc3Cl)CC2)c1,"inconclusive: 35.5 µM [inhibitor, partial curve]"
19,Cc1ccccc1C(=O)N1CCC(C(=O)N2CCC(N3Cc4ccccc4C3=O)CC2)CC1,"inconclusive: 79.4 µM [inhibitor, partial curve, poor fit]"
